The other results are listed elsewhere or left out.
What was measured:
Test in all cases: glycan array binding signal (z-score within array); higher = stronger binding
Settings in all cases: glycan notation: IUPAC condensed, linker removed
[1] = target: Gal(b1-3)GlcNAc(b1-3)Gal(b1-3)GlcNAc
Procedure, shortened: (§1)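 Glycan array data were curated from 3228 arrays in the Consortium for Functional Glycomics database and kept only where the protein sequence was available. Glycan names were converted to IUPAC-condensed notation, and columns mapping to the same glycan were averaged. The binding signal is a within-array Z-score, averaged across arrays of the same protein sequence at different concentrations or buffers and across linkers. Negative Z-scores can be read as non-binding.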

[2] = target: Gal(b1-3)GlcNAc(b1-3)Gal(b1-4)Glc
Procedure, shortened: as §1

[3] = target: Gal(b1-3)GlcNAc(b1-3)Gal(b1-4)GlcNAc
Procedure, shortened: as §1

[4] = target: Gal(b1-3)[Fuc(a1-4)]GlcNAc
Procedure, shortened: as §1

[5] = target: Gal(b1-3)[Fuc(a1-4)]GlcNAc(b1-2)Man(a1-3)[Gal(b1-3)[Fuc(a1-4)]GlcNAc(b1-2)Man(a1-6)]Man(b1-4)GlcNAc(b1-4)GlcNAc
Procedure, shortened: as §1

[6] = target: Gal(b1-3)[Fuc(a1-4)]GlcNAc(b1-2)Man(a1-3)[Gal(b1-3)[Fuc(a1-4)]GlcNAc(b1-2)Man(a1-6)]Man(b1-4)GlcNAc(b1-4)[Fuc(a1-6)]GlcNAc
Procedure, shortened: as §1

[7] = target: Gal(b1-3)[Fuc(a1-4)]GlcNAc(b1-3)Gal(b1-3)[Fuc(a1-4)]GlcNAc
Procedure, shortened: as §1

[8] = target: Gal(b1-3)[Fuc(a1-4)]GlcNAc(b1-3)Gal(b1-4)GlcNAc
Procedure, shortened: as §1

[9] = target: Gal(b1-3)[Fuc(a1-4)]GlcNAc(b1-3)Gal(b1-4)[Fuc(a1-3)]GlcNAc
Procedure, shortened: as §1

[10] = target: Gal(b1-3)[GlcNAc(b1-6)]GalNAc
Procedure, shortened: as §1

[11] = target: Gal(b1-3)[Neu5Ac(a2-6)]GalNAc
Procedure, shortened: as §1

[12] = target: Gal(b1-3)[Neu5Ac(a2-6)]GlcNAc(b1-4)Gal(b1-4)Glc
Procedure, shortened: as §1

[13] = target: Gal(b1-3)[Neu5Ac(a2-6)]GlcNAc(b1-6)Gal(b1-4)Glc
Procedure, shortened: as §1

[14] = target: Gal(b1-3)[Neu5Ac(b2-6)]GalNAc
Procedure, shortened: as §1

[15] = target: Gal(b1-4)GalNAc(a1-3)[Fuc(a1-2)]Gal(b1-4)GlcNAc
Procedure, shortened: as §1

[16] = target: Gal(b1-4)GalNAc(b1-3)[Fuc(a1-2)]Gal(b1-4)GlcNAc
Procedure, shortened: as §1

Gal(b1-4)Glc = target: Gal(b1-4)Glc
Procedure, shortened: as §1

Gal(b1-4)Glc6S = target: Gal(b1-4)Glc6S
Procedure, shortened: as §1

Gal(b1-4)GlcNAc = target: Gal(b1-4)GlcNAc
Procedure, shortened: as §1

[17] = target: Gal(b1-4)GlcNAc(a1-6)Gal(b1-4)GlcNAc
Procedure, shortened: as §1

[18] = target: Gal(b1-4)GlcNAc(b1-2)Man(a1-3)Man(b1-4)GlcNAc(b1-4)GlcNAc
Procedure, shortened: as §1

[19] = target: Gal(b1-4)GlcNAc(b1-2)Man(a1-3)[Gal(b1-4)GlcNAc(b1-2)Man(a1-6)]Man(b1-4)GlcNAc(b1-4)GlcNAc
Procedure, shortened: as §1

[20] = target: Gal(b1-4)GlcNAc(b1-2)Man(a1-3)[Gal(b1-4)GlcNAc(b1-2)Man(a1-6)]Man(b1-4)GlcNAc(b1-4)[Fuc(a1-6)]GlcNAc
Procedure, shortened: as §1

[21] = target: Gal(b1-4)GlcNAc(b1-2)Man(a1-3)[Man(a1-6)]Man(b1-4)GlcNAc(b1-4)GlcNAc
Procedure, shortened: as §1

[22] = target: Gal(b1-4)GlcNAc(b1-2)Man(a1-6)Man(b1-4)GlcNAc(b1-4)GlcNAc
Procedure, shortened: as §1

[23] = target: Gal(b1-4)GlcNAc(b1-2)Man(a1-6)[Man(a1-3)]Man(b1-4)GlcNAc(b1-4)GlcNAc
Procedure, shortened: as §1

[24] = target: Gal(b1-4)GlcNAc(b1-2)[Gal(b1-4)GlcNAc(b1-4)]Man(a1-3)[Gal(b1-4)GlcNAc(b1-2)Man(a1-6)]Man(b1-4)GlcNAc(b1-4)GlcNAc
Procedure, shortened: as §1

[25] = target: Gal(b1-4)GlcNAc(b1-3)Gal(b1-3)GlcNAc
Procedure, shortened: as §1

[26] = target: Gal(b1-4)GlcNAc(b1-3)Gal(b1-4)Glc
Procedure, shortened: as §1

[27] = target: Gal(b1-4)GlcNAc(b1-3)Gal(b1-4)GlcNAc
Procedure, shortened: as §1

[28] = target: Gal(b1-4)GlcNAc(b1-3)Gal(b1-4)GlcNAc(b1-3)Gal(b1-4)GlcNAc
Procedure, shortened: as §1

[29] = target: Gal(b1-4)GlcNAc(b1-3)Gal(b1-4)[Fuc(a1-3)]GlcNAc(b1-3)Gal(b1-4)[Fuc(a1-3)]GlcNAc
Procedure, shortened: as §1

[30] = target: Gal(b1-4)GlcNAc(b1-3)GalNAc
Procedure, shortened: as §1

[31] = target: Gal(b1-4)GlcNAc(b1-3)[Gal(b1-4)GlcNAc(b1-6)]Gal(b1-4)GlcNAc
Procedure, shortened: as §1

[32] = target: Gal(b1-4)GlcNAc(b1-3)[Gal(b1-4)GlcNAc(b1-6)]GalNAc
Procedure, shortened: as §1

[33] = target: Gal(b1-4)GlcNAc(b1-3)[GlcNAc(b1-6)]Gal(b1-4)GlcNAc
Procedure, shortened: as §1

[34] = target: Gal(b1-4)GlcNAc(b1-6)Gal(b1-4)GlcNAc
Procedure, shortened: as §1

[35] = target: Gal(b1-4)GlcNAc(b1-6)Gal(b1-4)GlcNAc(b1-6)GalNAc
Procedure, shortened: as §1

[36] = target: Gal(b1-4)GlcNAc(b1-6)GalNAc
Procedure, shortened: as §1

[37] = target: Gal(b1-4)GlcNAc(b1-6)[Gal(b1-3)]GalNAc
Procedure, shortened: as §1

Gal3S(b1-3)GalNAc = target: Gal3S(b1-3)GalNAc
Procedure, shortened: as §1

Gal3S(b1-3)GlcNAc = target: Gal3S(b1-3)GlcNAc
Procedure, shortened: as §1

[38] = target: Gal3S(b1-3)[Fuc(a1-4)]GlcNAc
Procedure, shortened: as §1

Gal3S(b1-4)Glc = target: Gal3S(b1-4)Glc
Procedure, shortened: as §1

Gal3S(b1-4)Glc6S = target: Gal3S(b1-4)Glc6S
Procedure, shortened: as §1

B1: MVL (Microcystis viridis), Q9RHG4 (protein)
chain: MASYKVNIPAGPLWSNAEAQQVGPKIAAAHQGNFTGQWTTVVESAMSVVEVELQVENTGIHEFKTDVLAGPLWSNDEAQKLGPQIAASYGAEFTGQWRTIVEGVMSVIQIKYTF
glycan array binding signal (z-score) [1]: -0.24 | glycan array binding signal (z-score) [2]: -0.237 | glycan array binding signal (z-score) [3]: -0.232 | glycan array binding signal (z-score) [4]: -0.232 | glycan array binding signal (z-score) [5]: 0.252 | glycan array binding signal (z-score) [6]: 0.237 | glycan array binding signal (z-score) [7]: -0.187 | glycan array binding signal (z-score) [8]: -0.202 | glycan array binding signal (z-score) [9]: -0.241 | glycan array binding signal (z-score) [10]: -0.237 | glycan array binding signal (z-score) [11]: -0.234 | glycan array binding signal (z-score) [12]: -0.206 | glycan array binding signal (z-score) [13]: -0.234 | glycan array binding signal (z-score) [14]: -0.236 | glycan array binding signal (z-score) [15]: -0.208 | glycan array binding signal (z-score) [16]: -0.253 | glycan array binding signal (z-score) (Gal(b1-4)Glc): -0.234 | glycan array binding signal (z-score) (Gal(b1-4)Glc6S): -0.238 | glycan array binding signal (z-score) (Gal(b1-4)GlcNAc): -0.227 | glycan array binding signal (z-score) [17]: -0.236 | glycan array binding signal (z-score) [18]: 1.02 | glycan array binding signal (z-score) [19]: 1.51 | glycan array binding signal (z-score) [20]: 1.26 | glycan array binding signal (z-score) [21]: 1.23 | glycan array binding signal (z-score) [22]: 0.977 | glycan array binding signal (z-score) [23]: 1.45 | glycan array binding signal (z-score) [24]: 1.29 | glycan array binding signal (z-score) [25]: -0.23 | glycan array binding signal (z-score) [26]: -0.235 | glycan array binding signal (z-score) [27]: -0.238 | glycan array binding signal (z-score) [28]: -0.236 | glycan array binding signal (z-score) [29]: -0.238 | glycan array binding signal (z-score) [30]: -0.238 | glycan array binding signal (z-score) [31]: -0.245 | glycan array binding signal (z-score) [32]: -0.237 | glycan array binding signal (z-score) [33]: -0.231 | glycan array binding signal (z-score) [34]: -0.241 | glycan array binding signal (z-score) [35]: -0.184 | glycan array binding signal (z-score) [36]: -0.244 | glycan array binding signal (z-score) [37]: -0.238 | glycan array binding signal (z-score) (Gal3S(b1-3)GalNAc): -0.219 | glycan array binding signal (z-score) (Gal3S(b1-3)GlcNAc): -0.239 | glycan array binding signal (z-score) [38]: -0.248 | glycan array binding signal (z-score) (Gal3S(b1-4)Glc): -0.232 | glycan array binding signal (z-score) (Gal3S(b1-4)Glc6S): -0.232
